Measured values from article PMC7819943, “Rice protein-binding microarrays: a tool to detect cis-acting elements near promoter regions in rice”.
This is one part of the list.

Target: T1, OsWOX13 (Oryza sativa, UniProt Q5QMM3 1-267)
T1 sequence: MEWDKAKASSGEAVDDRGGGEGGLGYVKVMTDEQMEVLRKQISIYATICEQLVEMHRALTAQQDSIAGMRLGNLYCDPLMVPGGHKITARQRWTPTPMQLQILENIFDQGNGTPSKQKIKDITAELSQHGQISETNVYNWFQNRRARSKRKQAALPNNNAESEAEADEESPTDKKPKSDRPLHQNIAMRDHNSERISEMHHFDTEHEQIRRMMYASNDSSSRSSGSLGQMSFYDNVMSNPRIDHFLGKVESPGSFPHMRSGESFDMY
Test: protein-binding microarray (RPBM); PBS, 2% BSA, 51.3 ng/ul salmon testes DNA, 50 uM zinc acetate, 200 nM TF, 25 C, 1 h; high values mean tight binding
Conditions: protein: recombinant; tags: N-terminal polyhistidine and DsRed monomer fusion (pET32a); label: CyDye5-dUTP incorporated in the synthesized complementary strand; 3' TTTTT single-stranded linker to array surface; dsDNA, one strand shown
How it was run: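 Binding signal is defined as the fluorescence intensity of each feature in arbitrary units, read on an Axon 4000B scanner. Transcription factors with N-terminal polyhistidine and DsRed fusions came from E. coli BL21-CodonPlus and were purified on Ni–NTA. They were incubated at 200 nM for 1 h at 25 °C on a custom Agilent array that had been made double-stranded with Cy5-dUTP, with 50 µM zinc acetate present, and the array was washed.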

Question: Which binding signal does the source give for “TTATAATTTATTTTGTTATGGATTGTTTTATCGTTCATAGCGGAGTCACCTAGTGCAG” here?
Answer: 29900 fluorescence intensity (a.u.)

Question: How did the binding signal turn out when “GCGATATCCATTGATTGAAAATTCTGCAAGATTCAAATATCGGAGTCACCTAGTGCAG” was run?
Answer: 20800 fluorescence intensity (a.u.)

Question: “ATTAACCATAATTAACGATGTAATTAACGGTCGAGTTGCACGGAGTCACCTAGTGCAG” was tested. Which binding signal did it give?
Answer: 48800 fluorescence intensity (a.u.)

Question: Which binding signal does the source give for “CCTGCTAATCGTAAATTATTTTCTGAAATATTAGTATCAACGGAGTCACCTAGTGCAG” here?
Answer: 8670 fluorescence intensity (a.u.)

Question: “CATTTTGATTTGTTGCCACGTTCAACCCGATAACATGTATCGGAGTCACCTAGTGCAG” was tested. Which binding signal did it give?
Answer: 34500 fluorescence intensity (a.u.)

Question: Which binding signal does the source give for “ACCTCTTTTAACATCTAATCAAACGTCTAATGTAACTCCTCGGAGTCACCTAGTGCAG” here?
Answer: 6570 fluorescence intensity (a.u.)

Question: For “CTGCAATAATTGGGCATATCTTGGCGCACGCATCAGCAATCGGAGTCACCTAGTGCAG”, which binding signal is on record?
Answer: 13700 fluorescence intensity (a.u.)

Question: “TTTTAATTAGTATATGTTTAATACACTAAATTAGTGTCCACGGAGTCACCTAGTGCAG” was tested. Which binding signal did it give?
Answer: 47800 fluorescence intensity (a.u.)

Question: With “CTTGACTAGGGACTCATACGTAATCATGGTTACAAGGATTCGGAGTCACCTAGTGCAG” as the sequence, how does the binding signal read?
Answer: 3400 fluorescence intensity (a.u.)

Question: With “TCGTGAACTCATGATTAGGAGGGAGAAGACACTGGTAGAGCGGAGTCACCTAGTGCAG” as the sequence, how does the binding signal read?
Answer: 3220 fluorescence intensity (a.u.)

Question: “TCCAATTAATGGCCACAGCAAGATAGACACCTAAGATAAACGGAGTCACCTAGTGCAG” was tested. Which binding signal did it give?
Answer: 5860 fluorescence intensity (a.u.)

Question: With “AATTACATAGGTTAATTAAATAATTAATTACTGCCACTACCGGAGTCACCTAGTGCAG” as the sequence, how does the binding signal read?
Answer: 36500 fluorescence intensity (a.u.)

Question: “CATTAACTACATCCAGTTATCAGCCCTGTCGTTTCTCTGCCGGAGTCACCTAGTGCAG” was tested. Which binding signal did it give?
Answer: 3750 fluorescence intensity (a.u.)

Question: For “CTCAACACGAAAATCACCATTTAATTAGTGGAATAAGTTCCGGAGTCACCTAGTGCAG”, which binding signal is on record?
Answer: 4740 fluorescence intensity (a.u.)

Question: “AGAAACAATCTAATTGGGTCATTGTGATGCAATTATTTATCGGAGTCACCTAGTGCAG” was tested. Which binding signal did it give?
Answer: 4700 fluorescence intensity (a.u.)

Question: With “AACCTGTTGAAAATTATTAATTTTGAAAGCTTCTACTCTTCGGAGTCACCTAGTGCAG” as the sequence, how does the binding signal read?
Answer: 5900 fluorescence intensity (a.u.)

Question: “GCCCATTAATTTTAGTCGGTGTGGCTGGTTTGTTCACTGACGGAGTCACCTAGTGCAG” was tested. Which binding signal did it give?
Answer: 3670 fluorescence intensity (a.u.)

Question: Which binding signal does the source give for “ACCGTTGACTGGAACTCGTACGGATACAGCGGGTAGTTGCCGGAGTCACCTAGTGCAG” here?
Answer: 16500 fluorescence intensity (a.u.)

Question: How did the binding signal turn out when “ACCAAATTAATATCATCAAATCAAATGTTAAATATATTTGCGGAGTCACCTAGTGCAG” was run?
Answer: 19200 fluorescence intensity (a.u.)

Question: Which binding signal does the source give for “TTTTAATTTGTTTGGATTAAGCCAAGTGACAATCTAAAATCGGAGTCACCTAGTGCAG” here?
Answer: 13500 fluorescence intensity (a.u.)

Question: With “ATACTTGATTTAAAATGAAAACATAGACAAATGTATGGTACGGAGTCACCTAGTGCAG” as the sequence, how does the binding signal read?
Answer: 23800 fluorescence intensity (a.u.)

Question: How did the binding signal turn out when “GCTATATTTAATTAACCATGTCTTAATCCGTCACTCTGTTCGGAGTCACCTAGTGCAG” was run?
Answer: 14000 fluorescence intensity (a.u.)

Question: How did the binding signal turn out when “AAGAAAATTGGTAGATCTTAACGAGTTCTACAACTTTATTCGGAGTCACCTAGTGCAG” was run?
Answer: 4040 fluorescence intensity (a.u.)

Question: “TTTGAATTTACATATGTAATTTTAGTACTTACATATGTAACGGAGTCACCTAGTGCAG” was tested. Which binding signal did it give?
Answer: 4290 fluorescence intensity (a.u.)

Question: “GTTAGGGGATGATTTTGTAACTAGATGACAAGTTGAGGGACGGAGTCACCTAGTGCAG” was tested. Which binding signal did it give?
Answer: 7730 fluorescence intensity (a.u.)

Question: With “TTGGGATTTGTTGATTGTAGTGTTAAATGTGTGCAATGTGCGGAGTCACCTAGTGCAG” as the sequence, how does the binding signal read?
Answer: 14800 fluorescence intensity (a.u.)

Question: With “TGAAATTTCAGTTTAAGAATTTATACACTGATAATCCAAACGGAGTCACCTAGTGCAG” as the sequence, how does the binding signal read?
Answer: 6370 fluorescence intensity (a.u.)

Question: “GCTGATCGCCAATCACTTGCCTTAGATGATTCTGCAATATCGGAGTCACCTAGTGCAG” was tested. Which binding signal did it give?
Answer: 24000 fluorescence intensity (a.u.)

Question: For “AAATTGATAATAATAGAGGGATAGCTGTTCTGAGGCTATACGGAGTCACCTAGTGCAG”, which binding signal is on record?
Answer: 4170 fluorescence intensity (a.u.)

Question: For “TCGAGATGGATAATTAGATTGATTGATTGGCCGATAGCCCCGGAGTCACCTAGTGCAG”, which binding signal is on record?
Answer: 65100 fluorescence intensity (a.u.)

Question: With “TGTTTGTAATTTGAGAAAATTTGAGGGATCATTCTGCATTCGGAGTCACCTAGTGCAG” as the sequence, how does the binding signal read?
Answer: 11700 fluorescence intensity (a.u.)

Question: For “TTTCATGTAAATTAACACGAGCCTGAATCCTCCGTTGAAGCGGAGTCACCTAGTGCAG”, which binding signal is on record?
Answer: 3750 fluorescence intensity (a.u.)

Question: How did the binding signal turn out when “ACGTTAATTTTCGCAGCATTACGGTATTTATAATCAGGCCCGGAGTCACCTAGTGCAG” was run?
Answer: 12700 fluorescence intensity (a.u.)

Question: Which binding signal does the source give for “ATTCGTGTCCATTAATTATATTTCGATAAAATCCGTTTTCCGGAGTCACCTAGTGCAG” here?
Answer: 7940 fluorescence intensity (a.u.)

Question: How did the binding signal turn out when “CACAAATTTAACCTCAGCTTCAGCTTCATCACTGCCAAATCGGAGTCACCTAGTGCAG” was run?
Answer: 4400 fluorescence intensity (a.u.)

Question: With “ACTTATGAATAAGCCAATTAGCCAACATTAATAGGAGGTCCGGAGTCACCTAGTGCAG” as the sequence, how does the binding signal read?
Answer: 9220 fluorescence intensity (a.u.)

Question: “TGAGATTAGGTATGATAGGATAATTCCAAAAGAGAATATACGGAGTCACCTAGTGCAG” was tested. Which binding signal did it give?
Answer: 6500 fluorescence intensity (a.u.)

Question: “GGTAAATGATTTACCGTTGGATCGACCGATCCCGTTCTCTCGGAGTCACCTAGTGCAG” was tested. Which binding signal did it give?
Answer: 41300 fluorescence intensity (a.u.)

Question: Which binding signal does the source give for “AATTTTGTTAATTCGGTTAACCGATCCTAATAACCAAAATCGGAGTCACCTAGTGCAG” here?
Answer: 4780 fluorescence intensity (a.u.)

Question: Which binding signal does the source give for “TAGAGATTAGACACGTGGACGGTGATGAGGCGATCGAGCACGGAGTCACCTAGTGCAG” here?
Answer: 4510 fluorescence intensity (a.u.)

Question: “TATAATTTAAATTTAACTAAATTAATGGTATTACAGATGTCGGAGTCACCTAGTGCAG” was tested. Which binding signal did it give?
Answer: 58500 fluorescence intensity (a.u.)

Question: Which binding signal does the source give for “ATTGGTGACTAGTTATAATTAAATTTAGGTCATCGGTTATCGGAGTCACCTAGTGCAG” here?
Answer: 11500 fluorescence intensity (a.u.)
